In all, about 91,000 compounds went through this assay and about 290 (0.32%) were called active. Inconclusive results, whose numbers are uncertain, are shown with a selection of clear calls. Calls follow the shape of the dose curve; as a rule, active = well fitted inhibition curve with a large enough effect; inconclusive = small, poorly fitted or top-dose-only effect; inactive = no such curve, though single readings can be large or run the other way. Potencies beside an inconclusive call are fits to weak or partial responses and may not hold up.
These compounds were tested against Single-stranded DNA cytosine deaminase (Homo sapiens) (UniProt Q9GZX7) (assay: Primary qHTS assay for inhibitors of Activation Induced Cytidine Deaminase (AID): AID signal). Conditions: AID deamination FRET fluorescence, UDG-coupled, 4 h; series mostly up to 115 µM.
Sequence of UniProt Q9GZX7 (Q9GZX7 whole entry, looked up): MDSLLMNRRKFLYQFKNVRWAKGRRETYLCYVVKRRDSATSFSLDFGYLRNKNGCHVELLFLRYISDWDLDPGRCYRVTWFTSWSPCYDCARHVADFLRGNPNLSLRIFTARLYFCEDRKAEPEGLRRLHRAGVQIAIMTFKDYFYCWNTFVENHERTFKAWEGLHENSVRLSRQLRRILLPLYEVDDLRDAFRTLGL
For `O=C(COc1ccc(Cl)cc1)Nc1ccc2nc(SCC(=O)N3CCOCC3)sc2c1`, the Potency was inconclusive: 79.4 µM [inhibitor, single point]. In the case of `N#CC1=C(N)OC2=C(C(=O)CC(c3ccccc3)C2)C1Cc1ccccc1` (configuration not stated), the Potency was “inactive”. In the case of `Cc1ccc(C)c(Oc2nc3c(c(=O)n(C)c(=O)n3C)n2Cc2ccccc2)c1`, the Potency was inconclusive: 50.1 µM [inhibitor, partial curve, poor fit]. In the case of `CCc1ccc(NC(=O)C2CCCN(S(=O)(=O)c3ccc(F)cc3)C2)cc1` (configuration not stated), the Potency was “inactive”. `Cc1ccc(Cl)cc1N1CCN(C(=O)c2cc(S(=O)(=O)N3CCCC3)c[nH]2)CC1` was tested, and the Potency was inconclusive: 89.1 µM [inhibitor, single point]. With `c1ccc(-c2noc(CSc3nnnn3C3CCCCC3)n2)cc1` the Potency was “inactive”. In the case of `CC(C)c1ccc(NC(=O)CSC2=Nc3ccccc3C3=NC(CCC(=O)NCc4ccco4)C(=O)N23)cc1` (configuration not stated), the Potency was inconclusive: 44.7 µM [inhibitor, partial curve, poor fit]. In the case of `COc1ccc(C)cc1NC(=O)COCc1cc(-c2ccc(F)cc2)on1`, the Potency was inconclusive: 20 µM [inhibitor, full curve]. In the case of `Cc1ccc(C(=O)Nc2nc3nc(-c4ccccc4)cc(=O)n3[nH]2)cc1`, the Potency was inconclusive: 14.1 µM [inhibitor, full curve, poor fit]. `CCCn1cc(S(=O)(=O)c2ccc(OC)cc2)c(=O)c2cc(F)c(N3CCCC(C)C3)cc21` (configuration not stated) was tested, and the Potency was inconclusive: 25.1 µM [inhibitor, full curve]. `CCOc1ccc(-c2nonc2NC(=O)c2oc3ccc(C)cc3c2C)cc1OCC` was tested, and the Potency was inconclusive: 89.1 µM [inhibitor, single point]. For `O=C(CSc1c2c(nc3cc(Cl)ccc13)CCCC2)N1CCN(c2ccccc2)CC1`, the Potency was inconclusive: 17.8 µM [inhibitor, full curve]. `CS(=O)(=O)NC1CCN(C(=O)c2cc(Cl)ccc2F)CC1` was tested, and the Potency was “inactive”. With `CCc1ccc(NC(=O)CSc2nc3c(c(=O)[nH]2)CN(Cc2ccc(C)cc2)CC3)cc1` the Potency was inconclusive: 79.4 µM [inhibitor, single point]. In the case of `COc1nnc(-c2ccc(N3CCCCC3)c(NC(=O)c3ccccc3Cl)c2)c2ccccc12`, the Potency was inconclusive: 39.8 µM [inhibitor, single point]. In the case of `O=C1Nc2ccc(I)cc2/C1=C/c1cc(Br)c(O)c(Br)c1`, the Potency was inconclusive: 79.4 µM [inhibitor, partial curve]. With `COc1ccccc1C(=O)Oc1c(Sc2ccccc2)c(C)nn1-c1ccccc1` the Potency was active: 44.7 µM. With `COc1cc(OC)cc(C(=O)Nc2ccc3nc4n(c(=O)c3c2)CCCCC4)c1` the Potency was inconclusive: 50.1 µM [inhibitor, partial curve, poor fit]. In the case of `COc1ccc(S(=O)(=O)N(CC(=O)Nc2ccccc2Cl)Cc2ccccc2)cc1`, the Potency was inconclusive: 28.2 µM [inhibitor, partial curve, poor fit]. `CC(C)Oc1ccc(/C(O)=C2\C(=O)C(=O)N(c3nccs3)C2c2cccc(Br)c2)cc1` (configuration not stated) was tested, and the Potency was inconclusive: 56.2 µM [inhibitor, partial curve, poor fit]. In the case of `Cc1ccc(N/N=C/c2ccc(Cl)c(Cl)c2)cc1`, the Potency was “inactive”. With `COc1ccccc1Nc1c2c(nc3ccc(NC(=O)c4ccccc4F)cc13)CCCC2` the Potency was inconclusive: 15.8 µM [inhibitor, full curve, poor fit]. `Cc1ccc(C)c(N2CCN(CCCNC(=O)c3cnn(-c4ccccc4)c3C3CCN(C(=O)OC(C)(C)C)CC3)CC2)c1` was tested, and the Potency was “inactive”. For `Cc1ccc(C2C(C#N)=C(N)Oc3c2ccc2ccccc32)cc1` (configuration not stated), the Potency was “inactive”. `C=CC(=O)OCCSc1nc(N2CCOCC2)nc(N2CCOCC2)n1` was tested, and the Potency was “inactive”. `CC1CCN(S(=O)(=O)c2ccc3nc(NCc4ccccc4)ccc3c2)CC1` was tested, and the Potency was inconclusive: 22.4 µM [inhibitor, single point]. For `O=C(CCSCc1cnn(-c2ccccc2)c1-n1cccc1)NCc1ccccc1Cl`, the Potency was inconclusive: 25.1 µM [inhibitor, full curve, poor fit]. For `Cc1ccc(Cl)cc1N1CCN(C(=O)c2ccc(CS(=O)c3ccccc3)o2)CC1` (configuration not stated), the Potency was inconclusive: 35.5 µM [inhibitor, full curve, poor fit]. For `CC(C)CCn1c(Oc2ccccc2F)nc2c1c(=O)n(C)c(=O)n2C`, the Potency was inconclusive: 50.1 µM [inhibitor, partial curve, poor fit]. `CC(SCc1ccccc1)C(=O)NCc1ccco1` (configuration not stated) was tested, and the Potency was “inactive”. `Cc1ccccc1OCc1nc2ccccc2n1Cc1ccccc1Cl` was tested, and the Potency was inconclusive: 70.8 µM [inhibitor, partial curve, poor fit]. `CCc1ccc(C(CNS(=O)(=O)c2cccs2)N(C)C)cc1` (configuration not stated) was tested, and the Potency was “inactive”. For `CCOC(=O)c1c(NC(=O)CSc2nc(-c3ccccc3)cc(C(F)(F)F)n2)sc(C)c1C`, the Potency was inconclusive: 31.6 µM [inhibitor, single point]. For `CCOC(=O)N1CCC(NC(=O)c2ccc3c(c2)N(Cc2cc(C)ccc2C)C(=O)c2ccccc2S3=O)CC1` (configuration not stated), the Potency was inconclusive: 50.1 µM [inhibitor, partial curve, poor fit]. `CSc1ccc(/C=C2\COc3ccccc3C2=O)cc1` was tested, and the Potency was “inactive”. For `O=C(COc1ccc(Cl)cc1)NCCc1csc(-c2ccc(F)cc2)n1`, the Potency was “inactive”. With `CC1Cc2cc(S(=O)(=O)N(C)c3ccc(Br)cc3)ccc2N1C(=O)C1CC1` (configuration not stated) the Potency was inconclusive: 25.1 µM [inhibitor, full curve, poor fit]. `Cc1cc(C)n(-c2nnc(Nc3cc(Cl)ccc3C)c3ccccc23)n1` was tested, and the Potency was “inactive”. For `CC(C)c1nnc(NC(=O)C2CCN(C(=O)c3ccc(F)cc3)CC2)s1`, the Potency was “inactive”. For `CC(Cc1ccccc1)NNC(=O)C(O)(Cc1ccccc1)Cc1ccccc1` (configuration not stated), the Potency was “inactive”. For `Cn1nc(-c2ccc(C(=O)Nc3cccc(C(F)(F)F)c3)cc2)c2ccccc2c1=O`, the Potency was inconclusive: 39.8 µM [inhibitor, single point]. `CCCCC(=O)OC1=C(C(=O)c2ccccc2)N(C)S(=O)(=O)c2ccccc21` was tested, and the Potency was inconclusive: 79.4 µM [inhibitor, partial curve].
Also: nearly all actives have a fitted effect of over 25% in size.
Potency is read from the fitted curve at half-maximal effect; tags tell the direction and shape of the fitted curve.
